# Assay results taken from paper PMC6919601, “Identification of Plasmodium dipeptidyl aminopeptidase allosteric inhibitors by high throughput screening” (PLoS ONE, 2019).
# About 230 (0.21%) of roughly 110,000 compounds showed an effect of 50% or more. The list shows a part of the results.
# Molecular target: DPAP1 (Plasmodium falciparum, UniProt Q8IIJ9)
# Test: primary screen, percent inhibition; read by cleavage of a fluorogenic dipeptide substrate; higher = more effect of the substance
# Parameters: species or system P. falciparum D10 trophozoite lysates; single well
# 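Note: 30 min substrate incubation versus DMSO and 10 µM JCP410 controls.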
# DPAP1, sequence (Q8IIJ9 whole entry, looked up): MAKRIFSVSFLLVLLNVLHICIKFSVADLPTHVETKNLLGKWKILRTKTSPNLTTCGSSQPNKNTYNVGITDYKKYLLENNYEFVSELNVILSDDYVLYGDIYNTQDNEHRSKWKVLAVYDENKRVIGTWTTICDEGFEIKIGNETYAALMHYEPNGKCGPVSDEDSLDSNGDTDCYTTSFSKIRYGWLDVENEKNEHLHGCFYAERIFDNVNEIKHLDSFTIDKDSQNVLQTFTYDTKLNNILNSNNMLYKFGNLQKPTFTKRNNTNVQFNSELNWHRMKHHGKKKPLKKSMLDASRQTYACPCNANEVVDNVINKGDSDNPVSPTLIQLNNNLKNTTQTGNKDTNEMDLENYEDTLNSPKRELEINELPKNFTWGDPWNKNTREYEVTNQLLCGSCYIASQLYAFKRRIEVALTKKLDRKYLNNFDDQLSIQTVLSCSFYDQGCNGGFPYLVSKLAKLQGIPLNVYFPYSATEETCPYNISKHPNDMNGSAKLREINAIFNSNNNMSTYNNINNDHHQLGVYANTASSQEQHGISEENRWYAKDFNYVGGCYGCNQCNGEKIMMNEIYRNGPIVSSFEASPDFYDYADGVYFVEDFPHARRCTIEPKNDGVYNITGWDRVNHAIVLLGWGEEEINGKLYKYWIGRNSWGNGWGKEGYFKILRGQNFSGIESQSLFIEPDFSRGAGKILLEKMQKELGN
row,SMILES,% Inhibition @ 10 uM [%]
1,COc1ccc(N/C=C(/C#N)c2nc(-c3ccc(Cl)cc3)cs2)cc1,2.22
2,O=C1CS(=O)(=O)C(c2ccc(Cl)cc2Cl)N1c1ccc(Br)cc1 (stereo not drawn),-5.41
3,COc1ccc2[nH]c3c(c2c1)CC(O)CC3 (stereo not drawn),-2.39
4,COc1ccc(S(=O)(=O)N(C)CC(=O)NCCC2=CCCCC2)cc1,-9.72
5,Cc1ccc(NC(=O)c2ccccc2)nc1,0.145
6,CCOc1ccccc1N1C(=O)C2C3C=CC(C4CC34)C2C1=O (stereo not drawn),2.67
7,Nc1c(C(=O)NCc2ccc(Cl)cc2)nnn1-c1ccc(OC(F)(F)F)cc1,-1.85
8,O=C(NCC1CCCO1)c1nc(-c2ccc(Cl)cc2)n2c1CCCCC2 (stereo not drawn),0.244
9,CC1(C(=O)O)CCC(C(=O)N2CCc3ccccc32)C1(C)C (stereo not drawn),-7.18
10,COc1ccc(C2(C)N(O)C(C)C(c3ccccc3)=[N+]2[O-])cc1 (stereo not drawn),-0.0626
11,COc1ccccc1OCCSc1nc(-c2ccco2)nc2cc(=O)[nH]n12,2.97
12,O=C(CCN1C(=O)c2cccc3cccc(c23)C1=O)NCC1CCCO1 (stereo not drawn),-1.06
13,S=C(c1ccncc1)N1CCOCC1,-3.5
14,O=C(N/C(=C/C=C/c1ccccc1)C(=O)N1CCCCCC1)c1ccccc1,4.01
15,CC(NC(=O)CSCc1cnn(-c2ccccc2)c1-n1cccc1)c1ccccc1 (stereo not drawn),-5.15
16,C/C(=C\c1ccccc1)CN1CCN(c2ccc(Cl)cc2)CC1,7.53
17,CCCC1(O)C(C)C(c2ccccc2)NC(c2ccccc2)C1C (stereo not drawn),-4.98
18,CC1CN(S(=O)(=O)c2ccc3c(c2)C(=O)c2ccccc2C3=O)CC(C)O1 (stereo not drawn),14.8
19,COc1cccc(C(=O)N(Cc2nc(-c3ccccc3)no2)C(C)C)c1OC,-1.54
20,CCOc1ccc(CCNC(=O)Cn2ncc3c4cc(C)ccc4nc-3c2O)cc1OCC,7.12
21,CCC(C)NC(=O)c1ccc(Cl)c(Cl)c1 (stereo not drawn),4.17
22,O=C(O)c1ccc2c(c1)C(=O)N(NC(=O)c1ccncc1)C2=O,1.64
23,N#CCNC(=O)C(CCc1ccccc1)NC(=O)c1ccc(-c2ccccc2Cl)cc1 (stereo not drawn),-0.207
24,CCOc1nc2c(ncn2C)c(=O)n1C,-1.22
25,CNC(=O)/C(=C/c1ccccc1F)NC(=O)c1ccc(C)cc1,-3.26
26,CC1(C)CC(=O)C2=C(C1)OC(N)=C(C#N)C2c1cccc([N+](=O)[O-])c1 (stereo not drawn),-1.8

row,SMILES,% Inhibition @ 10 uM [%]
1,CNC(=O)/C(=C\c1ccc(Br)cc1)NC(=O)c1ccccc1,2.67
2,COc1ccc(C(=O)Nc2ccc(C#N)cc2)cc1,-2.6
3,CN1CCCN(C2CCC(c3ccccc3)CC2)CC1 (stereo not drawn),-5.11
4,N#CC1=C(N)OC2=C(C(=O)CC(c3ccccc3)C2)C1c1ccc(F)cc1 (stereo not drawn),3.54
5,c1ccc2cc(OCCN3CCOCC3)ccc2c1,-7.25
6,OCCC/N=C/c1c(O)n(-c2c(Cl)cccc2Cl)c2ccccc12,-10.4
7,CC1=C(C(=O)OCC2CCCCC2)C(c2ccc(Cl)cc2)NC(=O)N1 (stereo not drawn),3.42
8,CN(C)c1cc(=O)n2c(n1)SCCC2,0.558
9,O=C(CCc1c[nH]c2ccccc12)N1CCn2c(nc3ccccc32)C1,5.53
10,CCC(C)NC(=O)C1CCN(C(=O)c2cc3sccc3n2C)CC1 (stereo not drawn),-5.19
11,CCOC(=O)/C(C#N)=C/c1c(Oc2ccc(Br)cc2)nc2c(C)cccn2c1=O,2
12,COc1ccc(CN2CCN(Cc3cccc(F)c3)CC2)cc1OC,-7.09
13,O=S(=O)(c1ccc(Br)s1)N1CCCN(Cc2c(Cl)cccc2Cl)CC1,1.91
14,Cc1cc(O)c(NC(=O)c2ccccc2Br)cc1C,-3.28
15,CC1CCC2C(=O)N(CNc3ccc(Br)cc3)C(=O)C2C1 (stereo not drawn),0.389
16,COc1ccc2c(Sc3ccc(C)cc3)c(C(=O)N3CCOCC3)[nH]c2c1,-3.1
17,CN(Cc1ccccc1)C(=O)Cn1cnc2onc(-c3ccc(Cl)cc3)c2c1=O,-3.31
18,Cc1cc(NCCCN2CCOCC2)nc(-c2ccccc2O)n1,-5.78
19,CCC(=O)Nc1ccc(NC(=O)COc2cccc(C)c2)cc1,6.65
20,Cc1cc(C(F)(F)F)nc(NC(C)c2ccccc2)n1 (stereo not drawn),-7.33
21,O=c1c2cccnc2n(Cc2ccccc2F)c(=O)n1CCc1c[nH]c2ccccc12,7.84
22,OC1(c2ccc(Br)cc2)CCN(C2Cc3ccccc3C2)CC1,1.88
23,C=CCOc1ccc2ccccc2c1CNCc1cccnc1,-5.06
24,NC(=O)CSc1nc(SCC(N)=O)c2cnn(-c3ccccc3)c2n1,-0.661
25,COc1ccc2nc(C)c(CN(C)C3CCN(C)CC3)c(O)c2c1,-4.93
